The values below are quoted from earlier work in publication PMC11006913.

Conditions in all cases: PBM; conditions not shown; double strand, one strand shown; scale: upbm affinity estimate (log intensity, higher = more binding, comparable within an allelic series)
Series [1] addresses T1, HESX1 E149K (Homo sapiens) (UniProt Q9UBX0).
T1 sequence: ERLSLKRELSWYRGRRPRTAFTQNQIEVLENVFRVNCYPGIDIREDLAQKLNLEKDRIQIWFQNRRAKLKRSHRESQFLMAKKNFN

Series [2] has as its target T2, HESX1 N125S (Homo sapiens) (UniProt Q9UBX0).
T2 sequence: T1 sequence with N31S, K55E

Series [3] deals with T3, HESX1 R160C (Homo sapiens) (UniProt Q9UBX0).
T3 sequence: T1 sequence with K55E, R66C

Series [4] has as its target PITX2 L100Q (Homo sapiens) (UniProt Q99697).
The target of series [5] is PITX2 R108H (Homo sapiens) (UniProt Q99697).
Series [6] deals with PITX2 R130W (Homo sapiens) (UniProt Q99697).
Series [7] addresses PITX2 T114P (Homo sapiens) (UniProt Q99697).
In series [8] the target is NKX2-5 K183E (Homo sapiens) (UniProt P52952).
Series [9] deals with NKX2-5 R161P (Homo sapiens) (UniProt P52952).
For series [10], the target named is NKX2-5 R190C (Homo sapiens) (UniProt P52952).
Series [11] concerns the target PROP1 R112Q (Homo sapiens) (UniProt O75360).
In series [12] the target is PROP1 R99Q (Homo sapiens) (UniProt O75360).
In series [13] the target is ISX (Homo sapiens) (UniProt Q2M1V0).
The target in series [14] is ISX R83Q (Homo sapiens) (UniProt Q2M1V0).
Series [15] concerns the target HOXD13 I297V (Homo sapiens) (UniProt P35453).
For series [16], the target named is HOXD13 I322L (Homo sapiens) (UniProt P35453).
The target of series [17] is HOXD13 N298S (Homo sapiens) (UniProt P35453).
In series [18] the target is HOXD13 Q325K (Homo sapiens) (UniProt P35453).
In series [19] the target is HOXD13 Q325R (Homo sapiens) (UniProt P35453).
Series [20] has as its target HOXD13 R306W (Homo sapiens) (UniProt P35453).
The target in series [21] is HOXD13 S316C (Homo sapiens) (UniProt P35453).
In series [22] the target is T4, PBX4 (Homo sapiens) (UniProt Q9BYU1).
T4 sequence: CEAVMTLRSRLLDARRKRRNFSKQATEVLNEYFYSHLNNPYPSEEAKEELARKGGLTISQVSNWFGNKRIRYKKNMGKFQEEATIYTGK

For series [23], the target named is T5, PBX4 R215Q (Homo sapiens) (UniProt Q9BYU1).
T5 sequence: T4 sequence with R19Q

Substitutions are numbered along the chain they refer to. The list shows a part of the results.

Take ACCTCCCA [8-mer ACCTCCCA]: the binding signal in series [1] was 9.92; in [2], 7.71; in series [3] it was 10.1; in [4] it was 8.33; in [5] it was 8.23; in series [6] it was 8.14. Moreover, the binding signal in series [7] was 8.23.
CCACTTAG [8-mer CCACTTAG]: the binding signal in series [1] is 10.8; in series [2], 9.66; in [3] it was 10.3; in [8], 12.3; in series [9] it was 13.3; in [10], 10.8.
For the sequence AGCCCGGA [8-mer AGCCCGGA], the binding signal is 9.85 in [1]; 7.59 in series [2]; 10 in series [3]; 10 in series [8]; 10.2 in series [9]; 10.1 in [10].
AATAATAC [8-mer AATAATAC]: the binding signal in [2] is 9.22.
Turning to AATTACCT [8-mer AATTACCT], the results for the binding signal in [1], in [11] and in [12] were 11.3, 12.7 and 12.1, respectively.
For ACGGCGCT [8-mer ACGGCGCT], the binding signal in [1] was 9.95; in series [2], 7.59; in series [3] it was 10; in [11], 10.8; in series [12], 10.8.
In the case of AATTATTG [8-mer AATTATTG], in [2], the binding signal was 11.2.
For AATATTTA [8-mer AATATTTA], in series [2], the binding signal was 9.25.
Take ACCCGAGC [8-mer ACCCGAGC]: the binding signal in [1] was 10; in [2], 7.8; in series [3] it was 10; in series [11], 11; in [12], 10.9.
AATTATCC [8-mer AATTATCC]: the binding signal is 11.3 in series [1], 10 in [4], 8.85 in series [5] and 8.66 in series [6].
As for CGCCTCCC [8-mer CGCCTCCC], the binding signal in [1] was 9.83; in series [2], 7.53; in series [3] it was 9.86; in [11], 10.7; in [12] it was 10.9.
As for ATTAGCAA [8-mer ATTAGCAA], the figures for the binding signal in series [2] and in [3] were 9.81 and 10.3, respectively.
Consider TAATTGTA [8-mer TAATTGTA], for which the binding signal in [1] was 11.3; in series [2] it was 11.4; in [3], 10.5; in series [13] it was 14.6; in series [14], 13.1; in series [11], 12.6. Further, the binding signal in series [12] was 12.1.
As to ACTACATA [8-mer ACTACATA], in series [2], the binding signal is 9.
As to ACAATTAC [8-mer ACAATTAC], the binding signal in series [1] is 11.4; in series [11] it was 12.6.
Take GATTAGGA [8-mer GATTAGGA]: the binding signal in [2] is 9.13.
In the case of GCAATTAC [8-mer GCAATTAC], the binding signal was 11.3 in [1], 11.3 in series [2], 10.4 in series [3] and 12.1 in series [12].
Take CATTAAGA [8-mer CATTAAGA]: the binding signal in [2] is 9.37.
For the sequence CAATAAAG [8-mer CAATAAAG], the binding signal is 12.4 in [15]; 11.2 in [16]; 12.7 in [17]; 10.7 in series [18]; 11.5 in [19]; 11.7 in [20]. The binding signal in [21] was 12.4.
Consider CCAATAAA [8-mer CCAATAAA], for which the binding signal is 13.1 in series [15]; 11.7 in series [16]; 13.3 in series [17]; 10.8 in [18]; 11.8 in [19]; 12.4 in series [20]. Besides, the binding signal in [21] is 13.1.
Consider ATTTATAG [8-mer ATTTATAG], for which the binding signal in series [15] is 12.8; in series [16], 11.7; in series [17], 13; in series [18], 11.8; in series [19], 11.9; in series [20], 12.3. Besides, the binding signal in series [21] is 12.8.
CTGAGGGC [8-mer CTGAGGGC]: the binding signal in series [15] is 9.53; in series [16], 9.6; in series [17] it was 9.59; in series [18], 9.46; in [19], 9.44; in series [20] it was 9.43. The binding signal in series [21] was 9.6.
On to GCTATAAA [8-mer GCTATAAA], for which the binding signal in series [15] was 12.6; in series [16] it was 11.5; in series [17], 12.8; in [18], 11.9; in series [19] it was 11.8; in [20] it was 11.9. In series [21], the binding signal is 12.5.
Take CGATATTA [8-mer CGATATTA]: the binding signal in series [15] was 11.2; in series [16], 10.9; in series [17], 11.3; in series [18], 11; in series [19], 11.3; in series [20] it was 10.7. The binding signal in series [21] is 11.1.
As for AATTAGGT [8-mer AATTAGGT], the binding signal in [2] was 11.1; in [17], 11; in series [19], 10.9; in series [11] it was 12.5; in [12], 12.
Turning to ATTTTATG [8-mer ATTTTATG], the binding signal in series [15] is 12.5; in series [16], 11.3; in [17], 12.6; in series [18], 11.5; in series [19], 12; in series [20], 11.8. For the same sequence, the binding signal in [21] is 12.2.
GCGAGAGC [8-mer GCGAGAGC]: the binding signal was 9.63 in [15]; 9.54 in series [16]; 9.51 in [17]; 9.38 in series [18]; 9.47 in series [19]; 9.43 in series [20]. The binding signal in [21] is 9.58.
In the case of GGCACGCC [8-mer GGCACGCC], the binding signal in series [15] is 9.11; in [16] it was 9.23; in series [17], 9.05; in series [18], 9.19; in [19], 9.24; in [20], 9.24. In addition, the binding signal in [21] is 9.19.
Regarding TATGATGA [8-mer TATGATGA], the binding signal in [2] was 8.94; in [22], 10.6; in [23], 10.2.
For AGTTAACA [8-mer AGTTAACA], the binding signal in series [15] is 11.7; in [16] it was 11.7; in [17], 11.9; in [18], 10.8; in series [19], 10.9; in [20] it was 10.8. In addition, in series [21], the binding signal is 11.4.
Turning to AGGCGCTC [8-mer AGGCGCTC], the binding signal in series [15] is 9.39; in series [16], 9.56; in [17] it was 9.26; in [18], 9.33; in [19], 9.33; in series [20] it was 9.36. Further, the binding signal in series [21] is 9.4.
As for CTCCAGAG [8-mer CTCCAGAG], the binding signal in series [15] is 9.46; in series [16], 9.42; in [17] it was 9.44; in series [18] it was 9.5; in [19] it was 9.39; in series [20] it was 9.45. In addition, in series [21], the binding signal is 9.51.
As for CATTAATG [8-mer CATTAATG], the binding signal is 12.2 in series [15]; 11.4 in series [16]; 12.4 in series [17]; 11.6 in [18]; 11.6 in series [19]; 11.4 in series [20]. In addition, in series [21], the binding signal was 12.
In the case of CTTTATGA [8-mer CTTTATGA], the binding signal was 12.2 in [15]; 11.1 in [16]; 12.5 in [17]; 10.8 in series [18]; 11.5 in series [19]; 11.4 in series [20]. Besides, the binding signal in series [21] was 12.1.
As for ATTAGGCG [8-mer ATTAGGCG], the binding signal in [3] is 10.2.
As for CCAGCTGC [8-mer CCAGCTGC], the binding signal in series [15] is 9.56; in [16], 9.46; in [17], 9.52; in series [18], 9.54; in series [19] it was 9.46; in series [20], 9.43. In addition, the binding signal in series [21] is 9.58.
Take ACCATAAA [8-mer ACCATAAA]: the binding signal in series [15] was 12.5; in series [16], 11.5; in series [17], 12.7; in series [18], 10.7; in [19], 11.2; in series [20], 11.6. The binding signal in series [21] is 12.4.
For TCAATAAA [8-mer TCAATAAA], the binding signal in series [15] is 12.3; in [16], 11; in [17], 12.5; in series [18], 10.4; in series [19], 11.3; in [20], 11.8. In addition, the binding signal in series [21] is 12.3.
Regarding AACTTAAT [8-mer AACTTAAT], the binding signal in series [15] was 11.2; in series [16] it was 10.7; in series [17], 11.3; in series [18], 11.1; in series [19] it was 11.2; in series [20], 10.8. Further, the binding signal in series [21] was 11.
For ATTTATGA [8-mer ATTTATGA], the binding signal in series [15] was 12.6; in [16], 11.4; in series [17], 12.9; in [18], 11.1; in series [19] it was 12; in series [20], 12. For the same sequence, the binding signal in series [21] is 12.6.
In the case of CGCTTGGC [8-mer CGCTTGGC], the binding signal in series [15] was 9.59; in [16] it was 9.53; in series [17] it was 9.36; in series [18], 9.45; in [19], 9.59; in series [20] it was 9.41. Besides, the binding signal in series [21] is 9.45.
As to ACTATAAA [8-mer ACTATAAA], the binding signal in [15] was 12.6; in [16], 11.6; in [17] it was 12.8; in series [18], 11.6; in series [19], 11.8; in series [20], 11.9. The binding signal in [21] is 12.4.
In the case of CATATTAA [8-mer CATATTAA], the binding signal is 12.2 in series [15]; 11.5 in series [16]; 12.5 in series [17]; 11.9 in series [18]; 12.3 in [19]; 11.6 in series [20]. Further, in series [21], the binding signal was 12.2.
